The other results are listed elsewhere or left out. These are noisy estimates, calculated here from bound and input reads.
These sequences were tested against T1, Pho4 (S. cerevisiae) (UniProt P07270) (assay: relative binding free energy (BET-seq); higher = weaker binding). Conditions: reference: library average.
T1 sequence: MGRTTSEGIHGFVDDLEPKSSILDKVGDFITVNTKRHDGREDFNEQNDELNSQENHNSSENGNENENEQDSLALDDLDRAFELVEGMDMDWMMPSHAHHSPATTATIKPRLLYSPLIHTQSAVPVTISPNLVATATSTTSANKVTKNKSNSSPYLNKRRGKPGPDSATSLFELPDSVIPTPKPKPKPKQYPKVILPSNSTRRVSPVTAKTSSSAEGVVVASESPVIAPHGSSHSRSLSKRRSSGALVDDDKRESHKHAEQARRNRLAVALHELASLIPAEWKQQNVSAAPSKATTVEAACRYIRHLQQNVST
ATATTCACGTGATGTT was tested, and the “relative binding free energy” value was 0.27 kcal/mol. For TTGTCCACGTGTGAAT, the “relative binding free energy” value was 0.23 kcal/mol. AATTACACGTGAGGGG was tested, and the “relative binding free energy” value was 0.21 kcal/mol. For TTTGACACGTGCGGGG, the “relative binding free energy” value was -0.02 kcal/mol. For TAGAGCACGTGGGGGG, the “relative binding free energy” value was -0.19 kcal/mol. For GAGGGCACGTGAGTCT, the “relative binding free energy” value was 0.19 kcal/mol. For CGTTCCACGTGGTTTA, the “relative binding free energy” value was 0.04 kcal/mol. In the case of TATAACACGTGTCTGG, the “relative binding free energy” value is reported as -0.1 kcal/mol. For TTCAACACGTGGTGTT, the “relative binding free energy” value was -0.16 kcal/mol. TGCTTCACGTGGTAAG was tested, and the “relative binding free energy” value was 0.08 kcal/mol. For TTATTCACGTGTTGCA, the “relative binding free energy” value was 0.03 kcal/mol. In the case of GTCGGCACGTGGAGTA, the “relative binding free energy” value is reported as 0 kcal/mol. For GGAGGCACGTGGGTGT, the “relative binding free energy” value was -0.22 kcal/mol. In the case of GGGTGCACGTGCTTGC, the “relative binding free energy” value is reported as 0.03 kcal/mol. For GATTCCACGTGGGTGC, the “relative binding free energy” value was 0.21 kcal/mol. With TGGATCACGTGTTCGA the “relative binding free energy” value was 0.2 kcal/mol. In the case of CGGGACACGTGGTGGA, the “relative binding free energy” value is reported as -0.04 kcal/mol. With GAGGTCACGTGTTTAC the “relative binding free energy” value was 0.32 kcal/mol. With CAGGCCACGTGGGTAG the “relative binding free energy” value was -0.14 kcal/mol. TGATTCACGTGCTGTG was tested, and the “relative binding free energy” value was 0.28 kcal/mol. In the case of CATATCACGTGATTGT, the “relative binding free energy” value is reported as 0.32 kcal/mol. With GGAGGCACGTGCTGGT the “relative binding free energy” value was -0.19 kcal/mol. In the case of GTGCTCACGTGTTTTT, the “relative binding free energy” value is reported as 0.32 kcal/mol. For GTTCTCACGTGGTGAA, the “relative binding free energy” value was 0.33 kcal/mol. For TTATGCACGTGCGGCG, the “relative binding free energy” value was -0.09 kcal/mol. For ATGATCACGTGGTGCT, the “relative binding free energy” value was -0.09 kcal/mol. TTATGCACGTGACTTT was tested, and the “relative binding free energy” value was 0.2 kcal/mol. In the case of TGAGTCACGTGAAAGT, the “relative binding free energy” value is reported as 0.19 kcal/mol. For TTGGACACGTGAGTTC, the “relative binding free energy” value was 0.28 kcal/mol. In the case of CATTGCACGTGGATGT, the “relative binding free energy” value is reported as 0 kcal/mol. TTGCCCACGTGTGTGT was tested, and the “relative binding free energy” value was -0.12 kcal/mol. TAGGACACGTGACTGT was tested, and the “relative binding free energy” value was 0.17 kcal/mol. In the case of ATTTACACGTGGATCG, the “relative binding free energy” value is reported as 0.15 kcal/mol. For CGGGTCACGTGTATAA, the “relative binding free energy” value was 0.25 kcal/mol. For GTCTTCACGTGTATTA, the “relative binding free energy” value was 0.33 kcal/mol. ATTGGCACGTGCGGTC was tested, and the “relative binding free energy” value was -0.03 kcal/mol. In the case of AGGGGCACGTGGTGGG, the “relative binding free energy” value is reported as -0.16 kcal/mol. With GCCTGCACGTGGGAGG the “relative binding free energy” value was -0.07 kcal/mol. In the case of GGGGACACGTGAGGCT, the “relative binding free energy” value is reported as 0.16 kcal/mol. In the case of AAGGACACGTGCTTGG, the “relative binding free energy” value is reported as 0.06 kcal/mol. For CGGTGCACGTGTGGTC, the “relative binding free energy” value was 0.06 kcal/mol. With GTGTTCACGTGCTGAA the “relative binding free energy” value was 0.18 kcal/mol. With TGCTTCACGTGGGACG the “relative binding free energy” value was 0.22 kcal/mol. For ATGTTCACGTGATGTT, the “relative binding free energy” value was 0.35 kcal/mol. With GGGGCCACGTGTTATT the “relative binding free energy” value was 0.05 kcal/mol. With GGATACACGTGTGTAT the “relative binding free energy” value was 0.09 kcal/mol. For ATGTCCACGTGGTTTT, the “relative binding free energy” value was 0.14 kcal/mol. With TCGGTCACGTGTTATG the “relative binding free energy” value was 0.07 kcal/mol. In the case of TCATTCACGTGAGCGG, the “relative binding free energy” value is reported as 0.54 kcal/mol. GAGGGCACGTGGTTCA was tested, and the “relative binding free energy” value was -0.08 kcal/mol. For TTCATCACGTGATATG, the “relative binding free energy” value was 0.17 kcal/mol. For GTGTGCACGTGGTATT, the “relative binding free energy” value was -0.05 kcal/mol. For AAGGTCACGTGTAATT, the “relative binding free energy” value was 0.22 kcal/mol. AGGAGCACGTGGGTCT was tested, and the “relative binding free energy” value was -0.21 kcal/mol. TGAGGCACGTGTAGAG was tested, and the “relative binding free energy” value was 0 kcal/mol. With TGAATCACGTGGGTAA the “relative binding free energy” value was 0.11 kcal/mol. In the case of ATGTGCACGTGCTTTC, the “relative binding free energy” value is reported as 0.07 kcal/mol. TGCTCCACGTGGTTTT was tested, and the “relative binding free energy” value was 0.09 kcal/mol. AGTGGCACGTGGGTTG was tested, and the “relative binding free energy” value was -0.29 kcal/mol. For TAGATCACGTGTTCTG, the “relative binding free energy” value was 0.15 kcal/mol. For TGTCACACGTGATAGG, the “relative binding free energy” value was 0.02 kcal/mol. TATTTCACGTGATAAT was tested, and the “relative binding free energy” value was 0.26 kcal/mol. For GTTGACACGTGACGGG, the “relative binding free energy” value was 0.16 kcal/mol. TGTGGCACGTGGATGC was tested, and the “relative binding free energy” value was -0.05 kcal/mol. For GATTTCACGTGTTTCT, the “relative binding free energy” value was 0.29 kcal/mol. With GTATACACGTGTTTAT the “relative binding free energy” value was -0.02 kcal/mol. In the case of GGGTACACGTGGTCAG, the “relative binding free energy” value is reported as 0.01 kcal/mol. In the case of GTTGCCACGTGATGTG, the “relative binding free energy” value is reported as 0.01 kcal/mol. With TTCCTCACGTGTGGTG the “relative binding free energy” value was 0.4 kcal/mol. GTTTACACGTGGGTAA was tested, and the “relative binding free energy” value was 0.06 kcal/mol. With TAATGCACGTGGGGGC the “relative binding free energy” value was -0.26 kcal/mol. AGGTCCACGTGTGTAG was tested, and the “relative binding free energy” value was 0.11 kcal/mol. In the case of GGCGGCACGTGAGACG, the “relative binding free energy” value is reported as 0.23 kcal/mol. For TTTGGCACGTGCGTGC, the “relative binding free energy” value was 0.02 kcal/mol. For CGTGTCACGTGGGTTC, the “relative binding free energy” value was -0.04 kcal/mol. TTGTCCACGTGCTGGG was tested, and the “relative binding free energy” value was -0.02 kcal/mol. For TTACACACGTGTGTTG, the “relative binding free energy” value was 0.04 kcal/mol. For TGAGACACGTGGCTGT, the “relative binding free energy” value was -0.06 kcal/mol. CATAGCACGTGTGGAG was tested, and the “relative binding free energy” value was 0.08 kcal/mol. For GTGAGCACGTGTGCTA, the “relative binding free energy” value was -0.09 kcal/mol. For ATTGCCACGTGCGTTT, the “relative binding free energy” value was -0.18 kcal/mol. For GGTGTCACGTGTGTTT, the “relative binding free energy” value was 0.28 kcal/mol. With GTTATCACGTGTGTAG the “relative binding free energy” value was 0.14 kcal/mol. AAGTGCACGTGTAGAA was tested, and the “relative binding free energy” value was 0.01 kcal/mol. In the case of TGGTTCACGTGTCTAG, the “relative binding free energy” value is reported as 0.31 kcal/mol. In the case of TTGTACACGTGGTGTT, the “relative binding free energy” value is reported as 0.1 kcal/mol. For GGGCTCACGTGGTAGT, the “relative binding free energy” value was 0.33 kcal/mol. With TTGATCACGTGAGATA the “relative binding free energy” value was 0.3 kcal/mol. In the case of GGGGCCACGTGGTGTA, the “relative binding free energy” value is reported as -0.21 kcal/mol. GGTAACACGTGGGCGA was tested, and the “relative binding free energy” value was -0.08 kcal/mol. With TTATCCACGTGATGTT the “relative binding free energy” value was 0.09 kcal/mol. For TGCAGCACGTGTGGTA, the “relative binding free energy” value was -0.18 kcal/mol. GGCGTCACGTGGTTTG was tested, and the “relative binding free energy” value was 0.18 kcal/mol. In the case of GGTGTCACGTGCTCTT, the “relative binding free energy” value is reported as 0.1 kcal/mol. For TTTGACACGTGCTATG, the “relative binding free energy” value was -0.17 kcal/mol. For CTTGCCACGTGTGGGC, the “relative binding free energy” value was 0.04 kcal/mol. For GTGGCCACGTGTTGGA, the “relative binding free energy” value was 0.04 kcal/mol. In the case of GTTTTCACGTGAAGGT, the “relative binding free energy” value is reported as 0.48 kcal/mol. GTGGGCACGTGTATAA was tested, and the “relative binding free energy” value was 0.07 kcal/mol. With TTTTACACGTGAAGTG the “relative binding free energy” value was 0.4 kcal/mol. GTCTGCACGTGTAATG was tested, and the “relative binding free energy” value was 0.16 kcal/mol. In the case of TGTGCCACGTGTGGGC, the “relative binding free energy” value is reported as -0.09 kcal/mol. CGTGACACGTGTTGGT was tested, and the “relative binding free energy” value was -0.03 kcal/mol. With GATTTCACGTGGCTAT the “relative binding free energy” value was 0.44 kcal/mol. In the case of GGATGCACGTGGTATG, the “relative binding free energy” value is reported as -0.07 kcal/mol. GGGATCACGTGTAGAG was tested, and the “relative binding free energy” value was 0.25 kcal/mol. For TGCGACACGTGTTAGG, the “relative binding free energy” value was 0.08 kcal/mol. With TAGGGCACGTGTTAGT the “relative binding free energy” value was -0.07 kcal/mol. With ACGGGCACGTGAAGTG the “relative binding free energy” value was 0.18 kcal/mol. In the case of GGGGACACGTGGCATT, the “relative binding free energy” value is reported as -0.12 kcal/mol. With TGAGACACGTGTATAG the “relative binding free energy” value was -0.05 kcal/mol. In the case of ATGTGCACGTGAGGTA, the “relative binding free energy” value is reported as 0.2 kcal/mol. For TTTAACACGTGGGTTC, the “relative binding free energy” value was -0.12 kcal/mol. GTGTGCACGTGCTATG was tested, and the “relative binding free energy” value was -0.13 kcal/mol. In the case of TTTGGCACGTGAACTT, the “relative binding free energy” value is reported as -0.01 kcal/mol.

— the BET-seq Pho4 binding data (Le et al. 2018)
